Laboratory results as given in the supplement of paper PMC8285479.
Structures can show the parent of a compound that is named as a salt. ± gives the standard deviation of the averaged measurements. Over roughly 1,900 compounds, “normalised cell viability (NPI; 0 = phenylarsine oxide control, 1 = DMSO control)” has its median near 1; the lowest 2% begin near 0.039. The list shows a part of the results.

Tested on: NCI-H1944
Experiment: normalised cell viability (NPI; 0 = phenylarsine oxide control, 1 = DMSO control) (fraction of DMSO control); NCI-H1944 is a non-small cell lung cancer line; higher = more viable cells (less compound toxicity)
Conditions: 6 days
[1] = glucocorticoid arm: hydrocortisone 2.75 uM co-treatment, compound 1 µM
[2] = glucocorticoid arm: hydrocortisone 2.75 uM co-treatment, compound 5 µM
[3] = glucocorticoid arm: hydrocortisone 2.75 uM pre-treated 2 days and continued, compound 1 µM
[4] = glucocorticoid arm: hydrocortisone 2.75 uM pre-treated 2 days and continued, compound 5 µM
[5] = glucocorticoid arm: vehicle, compound 1 µM
[6] = glucocorticoid arm: vehicle, compound 5 µM
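Also: CTB read-out in 384-well plates, mean of triplicate wells, normalised per plate against 1 µM phenylarsine oxide and 0.1% DMSO, compounds added 24 h after seeding.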

Question: `CN(C)CCN(Cc1ccccc1)c1ccccn1` [Tripelennamine HCl] was tested. Which normalised cell viability [1] did it give?
Answer: 1.007 ± 0.0058

Question: And the normalised cell viability [2]?
Answer: 1 ± 0.026

Question: What about the normalised cell viability [3] of the same compound?
Answer: 1.01 ± 0.01

Question: And the normalised cell viability [4]?
Answer: 1 ± 0.033

Question: And the normalised cell viability [5]?
Answer: 0.9993 ± 0.0011

Question: What about the normalised cell viability [6] of the same compound?
Answer: 1.01

Question: Which normalised cell viability [1] does the source give for `N=C(N)c1ccc(OCCCCCOc2ccc(C(=N)N)cc2)cc1` [Pentamidine isethionate] here?
Answer: 0.952 ± 0.026

Question: And the normalised cell viability [2]?
Answer: 0.0941 ± 0.0061

Question: And the normalised cell viability [3]?
Answer: 1.03 ± 0.025

Question: What about the normalised cell viability [4] of the same compound?
Answer: 0.792 ± 0.033

Question: And the normalised cell viability [5]?
Answer: 1.017 ± 0.0058

Question: What about the normalised cell viability [6] of the same compound?
Answer: 0.182 ± 0.034

Question: With `N#Cc1c(O)c2c(-c3ccc(-c4ccccc4O)cc3)csc2[nH]c1=O` as the compound, how does the normalised cell viability [1] read?
Answer: 0.982 ± 0.01

Question: What about the normalised cell viability [2] of the same compound?
Answer: 0.999 ± 0.01

Question: What about the normalised cell viability [3] of the same compound?
Answer: 0.986 ± 0.0053

Question: What about the normalised cell viability [4] of the same compound?
Answer: 0.9907 ± 0.009

Question: And the normalised cell viability [5]?
Answer: 1.01 ± 0.01

Question: What about the normalised cell viability [6] of the same compound?
Answer: 1.01

Question: How did the normalised cell viability [1] turn out when `CCCCC(=O)O[C@H]1CC[C@H]2[C@@H]3CCc4cc(O)ccc4[C@H]3CC[C@]12C` [Estradiol valerate] was run?
Answer: 1.02 ± 0.02

Question: What about the normalised cell viability [2] of the same compound?
Answer: 1.04 ± 0.01

Question: And the normalised cell viability [3]?
Answer: 1.02 ± 0.01

Question: What about the normalised cell viability [4] of the same compound?
Answer: 1.04 ± 0.023

Question: And the normalised cell viability [5]?
Answer: 1.01 ± 0.01

Question: What about the normalised cell viability [6] of the same compound?
Answer: 1.01

Question: Which results are given for `O=c1cc(-c2cccc3c2Sc2ccccc2S3)oc(N2CCOCC2)c1`?
Answer: normalised cell viability [1]: 0.994 ± 0.01; normalised cell viability [2]: 1.01 ± 0.017; normalised cell viability [3]: 0.996 ± 0.026; normalised cell viability [4]: 0.972 ± 0.019; normalised cell viability [5]: 1.023 ± 0.0058; normalised cell viability [6]: 1.037 ± 0.0058

Question: For `Oc1ccc([C@H]2COc3cc(O)ccc3C2)cc1` [Equol], which normalised cell viability [1] is on record?
Answer: 0.996 ± 0.026

Question: And the normalised cell viability [2]?
Answer: 0.982 ± 0.034

Question: What about the normalised cell viability [3] of the same compound?
Answer: 0.993 ± 0.011

Question: What about the normalised cell viability [4] of the same compound?
Answer: 1 ± 0.01

Question: What about the normalised cell viability [5] of the same compound?
Answer: 0.987 ± 0.011

Question: And the normalised cell viability [6]?
Answer: 0.9913 ± 0.0085

Question: `Fc1ccc(C(c2ccc(F)cc2)N2CCN(C/C=C/c3ccccc3)CC2)cc1` [Flunarizine dihydrochloride] was tested. Which normalised cell viability [1] did it give?
Answer: 1.01 ± 0.018

Question: And the normalised cell viability [2]?
Answer: 0.983 ± 0.014

Question: And the normalised cell viability [3]?
Answer: 1.01 ± 0.011

Question: What about the normalised cell viability [4] of the same compound?
Answer: 1.05 ± 0.026

Question: What about the normalised cell viability [5] of the same compound?
Answer: 1.02

Question: What about the normalised cell viability [6] of the same compound?
Answer: 1.017 ± 0.0058

Question: `Nc1nc(Cl)nc2c1ncn2[C@H]1C[C@H](O)[C@@H](CO)O1` [Cladribine] was tested. Which normalised cell viability [1] did it give?
Answer: 0.0575 ± 0.013

Question: And the normalised cell viability [2]?
Answer: 0.0436 ± 0.0033

Question: And the normalised cell viability [3]?
Answer: 0.169 ± 0.0085

Question: And the normalised cell viability [4]?
Answer: 0.1867 ± 0.0011

Question: What about the normalised cell viability [5] of the same compound?
Answer: 0.0131 ± 0.0023

Question: What about the normalised cell viability [6] of the same compound?
Answer: 0.0121 ± 0.0031

Question: For `COc1cccc2c1[C@@H]1CN(CCCCn3c(=O)[nH]c4c(sc5ncc(-c6ccccc6)nc54)c3=O)C[C@@H]1CO2` [Fiduxosin hydrochloride], which normalised cell viability [1] is on record?
Answer: 1.013 ± 0.0058

Question: What about the normalised cell viability [2] of the same compound?
Answer: 1.02 ± 0.015

Question: And the normalised cell viability [3]?
Answer: 1.01 ± 0.01

Question: What about the normalised cell viability [4] of the same compound?
Answer: 1.05 ± 0.036

Question: And the normalised cell viability [5]?
Answer: 1.017 ± 0.0058

Question: What about the normalised cell viability [6] of the same compound?
Answer: 1.01 ± 0.015

Question: What does the source list for `COc1cccc2c1C(=O)c1c(O)c3c(c(O)c1C2=O)C[C@@](O)(C(=O)CO)C[C@@H]3O[C@H]1C[C@H](N)[C@H](O)[C@H](C)O1` [Doxorubicin hydrochloride; 4'-Epiadriamycin; Doxorubicin HCl]?
Answer: normalised cell viability [1]: 0.454 ± 0.36; normalised cell viability [2]: 0.288 ± 0.3; normalised cell viability [3]: 0.754 ± 0.26; normalised cell viability [4]: 0.484 ± 0.48; normalised cell viability [5]: 0.178 ± 0.17; normalised cell viability [6]: 0.129 ± 0.14

Question: For `Cc1cc(C(=O)NOCCO)c(Nc2ccc(I)cc2F)n(C)c1=O`, which normalised cell viability [1] is on record?
Answer: 0.614 ± 0.018

Question: What about the normalised cell viability [2] of the same compound?
Answer: 0.565 ± 0.035

Question: What about the normalised cell viability [3] of the same compound?
Answer: 0.66 ± 0.011

Question: What about the normalised cell viability [4] of the same compound?
Answer: 0.672 ± 0.037

Question: And the normalised cell viability [5]?
Answer: 0.286 ± 0.014

Question: What about the normalised cell viability [6] of the same compound?
Answer: 0.279 ± 0.013

Question: How did the normalised cell viability [1] turn out when `Cn1cnc2c(NCc3ccccc3)nc(NCCO)nc21` [Olomoucine] was run?
Answer: 1.006 ± 0.0069

Question: And the normalised cell viability [2]?
Answer: 1.03 ± 0.01

Question: And the normalised cell viability [3]?
Answer: 1.02 ± 0.01

Question: What about the normalised cell viability [4] of the same compound?
Answer: 1.08 ± 0.1

Question: And the normalised cell viability [5]?
Answer: 1.002 ± 0.0072

Question: And the normalised cell viability [6]?
Answer: 1 ± 0.014
